Counter-ions that a name gives are not always drawn. ± gives the standard deviation of the averaged measurements. This is one part of the list. Single values are uncertain, as repeats are few or missing.
How the values were obtained:
Experiment in all cases: log2 surviving fraction relative to plate median (drug vs vehicle, or drug+dl922-947 vs dl922-947 alone); ovarian cancer lines: OVCAR4 is platinum-sensitive while Ov4Cis resists cisplatin and Ov4Carbo carboplatin; higher = more cell survival
Details in all cases: compound concentration: 10 uM, 192 h
OVCAR4 = tested on: OVCAR4
Ov4Carbo = tested on: Ov4Carbo
Ov4Cis = tested on: Ov4Cis
[1] = dl922-947 oncolytic adenovirus co-treatment: MOI 10
[2] = dl922-947 oncolytic adenovirus co-treatment: none

SMILES | log2 surviving fraction (OVCAR4; [1]) | log2 surviving fraction (OVCAR4; [2]) | log2 surviving fraction (Ov4Carbo; [1]) | log2 surviving fraction (Ov4Carbo; [2]) | log2 surviving fraction (Ov4Cis; [1]) | log2 surviving fraction (Ov4Cis; [2])
CC(C(=O)O)c1ccc(C(=O)c2cccs2)cc1 (stereo unspecified) [Suprofen (Profenal)] | -0.193 ± 0.26 | -0.135 ± 0.58 | -0.0991 | 1.11 | -1.11 | 1.35
Cc1cnc(C(=O)O)c[n+]1[O-] [Acipimox] | -0.518 ± 2 | -0.107 ± 0.57 | -0.256 | 0.785 | 0.689 | 0.313
COc1cc(/C=C/C(=O)N2CCN(CC(=O)N3CCCC3)CC2)cc(OC)c1OC [Cinepazide maleate] | -0.757 ± 0.033 | 0.482 ± 0.2 | 0.00279 | 0.375 | 0.0396 | -2.4
CC[C@H](C)C[C@H](C)CCCCCCCCC(=O)N[C@H]1C[C@@H](O)[C@@H](NCCN)NC(=O)[C@@H]2[C@@H](O)CCN2C(=O)[C@H]([C@H](O)CCN)NC(=O)[C@H]([C@H](O)[C@@H](O)c2ccc(O)cc2)NC(=O)[C@@H]2C[C@@H](O)CN2C(=O)[C@H]([C@@H](C)O)NC1=O [Caspofungin acetate] | 1.06 ± 0.097 | -0.235 ± 0.11 | -0.224 | 1.06 | 0.305 | 0.259
CC[C@H]1OC(=O)[C@H](C)[C@@H](O[C@H]2C[C@@](C)(OC)[C@@H](O)[C@H](C)O2)[C@H](C)[C@@H](O[C@@H]2O[C@H](C)C[C@H](N(C)C)[C@H]2O)[C@](C)(O)C[C@@H](C)CN(C)[C@H](C)[C@@H](O)[C@]1(C)O [Azithromycin Dihydrate] | -0.322 ± 0.68 | 0.647 ± 1.4 | -0.139 | 0.913 | -0.613 | 0.577
Cc1c(OCC(F)(F)F)ccnc1C[S+]([O-])c1nc2ccccc2[nH]1 (stereo unspecified) [Lansoprazole] | -0.179 ± 0.84 | -0.649 ± 0.12 | -0.922 | -2.15 | -0.467 | -0.404
C[C@H]1O[C@@H](n2cc(F)c(=O)[nH]c2=O)[C@H](O)[C@@H]1O [Doxifluridine] | -0.303 ± 0.64 | 0.00648 ± 0.87 | -0.291 | -0.0347 | -0.575 | -0.553
CC(C)(Oc1ccc(CCNC(=O)c2ccc(Cl)cc2)cc1)C(=O)O [Bezafibrate] | 0.901 ± 0.15 | 0.59 ± 0.42 | 1.31 | 0.553 | 0.953 | 0.333
COC(=O)[C@H](c1ccccc1Cl)N1CCc2sccc2C1 [Clopidogrel (Plavix)] | 1.03 ± 0.96 | 0.0781 ± 0.12 | 1.2 | 0.299 | 0.149 | 0.555
Cc1cc2c(cc1S(N)(=O)=O)S(=O)(=O)CCC2 [Meticrane] | 0.00345 ± 0.76 | 0.0352 ± 0.52 | -0.329 | -0.261 | -0.216 | -0.93
C=C1CC[C@H](O)C/C1=C/C=C1\CCC[C@]2(C)[C@@H]([C@H](C)CCCC(C)(C)O)CC[C@@H]12 [Calcifediol] | -1.54 ± 0.14 | -1.66 ± 0.92 | -1.79 | -2.59 | -1 | -3.17
COc1ccc2[nH]c([S@@+]([O-])Cc3ncc(C)c(OC)c3C)nc2c1 [Esomeprazole sodium (Nexium)] | -0.492 ± 0.13 | -0.313 ± 0.41 | -0.408 | 0.0625 | -0.675 | -0.571
CC[C@@]1(O)C(=O)OCc2c1cc1n(c2=O)Cc2cc3c(CN(C)C)c(O)ccc3nc2-1 [Topotecan HCl] | -10 ± 2.4 | -11.6 ± 10 | -7.66 | -10.5 | -9.48 | -17.2
CCC1(c2cccc(O)c2)CCCCN(C)C1 (stereo unspecified) [Meptazinol HCl] | -1.05 ± 0.21 | -0.305 ± 0.87 | -0.213 | 0.371 | -0.977 | -0.733
CC(C(=O)O)c1cccc(Oc2ccccc2)c1 (stereo unspecified) [Fenoprofen calcium] | 0.266 ± 0.11 | -0.509 ± 0.36 | 0.212 | 1.38 | -0.537 | 0.663
NNc1nncc2ccccc12 [Hydralazine hydrochloride] | 0.379 ± 1.1 | 1.34 ± 0.81 | 1.25 | 0.608 | 1.18 | 0.531
CC(=O)/N=c1/sc(S(N)(=O)=O)nn1C [Methazolamide] | -0.233 ± 0.32 | -0.0624 ± 0.54 | -2.65 | 0.361 | -0.625 | -0.558
CCCC1O[C@@H]2C[C@H]3[C@@H]4CCC5=CC(=O)C=C[C@]5(C)[C@H]4[C@@H](O)C[C@]3(C)[C@]2(C(=O)CO)O1 (stereo partly specified) [Budesonide] | 2.02 ± 0.21 | 0.102 ± 0.93 | 2.79 | 1.74 | 1.22 | -0.961
COc1nc(N)nc2c1ncn2[C@@H]1O[C@H](CO)[C@@H](O)[C@@H]1O [Nelarabine (Arranon)] | 0.124 ± 0.93 | 1.43 ± 0.12 | 0.987 | 1.26 | 0.262 | 0.516
CC(C)NC[C@@H](O)COc1ccc(CC(N)=O)cc1 [(R)-(+)-Atenolol] | 0.213 ± 0.52 | -0.0945 ± 0.33 | 0.562 | -0.0889 | -0.278 | 0.811
Cn1c(=O)c2[nH]cnc2n(C)c1=O [Aminophylline (Truphylline)] | 0.465 ± 0.099 | 0.503 ± 0.47 | -0.406 | -1.23 | 0.566 | 0.0605
Clc1ccc(C(Cn2ccnc2)OCc2ccc(Sc3ccccc3)cc2)c(Cl)c1 (stereo unspecified) [Fenticonazole nitrate] | -2.1 ± 0.65 | -2.69 ± 0.54 | -2.17 | -1.35 | -2.04 | -2.76
CCOC(=O)c1c(CSc2ccccc2)n(C)c2cc(Br)c(O)c(CN(C)C)c12 [Arbidol HCl] | -0.414 ± 0.48 | -0.567 ± 0.25 | 0.532 | -1.06 | -0.257 | 0.178
C=C(C)[C@@H]1[C@H]2OC(=O)[C@@H]1[C@]1(O)C[C@H]3O[C@]34C(=O)O[C@H]2[C@]14C [Picrotoxinin] | 0.0341 ± 0.35 | -0.0758 ± 0.43 | 0.0412 | -0.674 | 0.359 | 0.191
Cc1onc(-c2ccccc2)c1-c1ccc(S(N)(=O)=O)cc1 [Bextra (valdecoxib)] | 0.0156 ± 0.24 | -0.396 ± 0.22 | -0.952 | 0.544 | -0.543 | -0.26
Clc1ccc(COC(Cn2ccnc2)c2ccc(Cl)cc2Cl)c(Cl)c1 (stereo unspecified) [Miconazole nitrate] | -0.928 ± 0.097 | -1.76 ± 0.84 | -1.26 | -2.57 | -1.85 | -0.579
